Experimental data taken from ChEMBL document CHEMBL4888484, “Replenishing the malaria drug discovery pipeline: Screening and hit evaluation of the MMV Hit Generation Library 1 (HGL1) against asexual blood stage Plasmodium falciparum ,using a nano luciferase reporter read-out” (2022).
“And” between values parts separate entries of the source, which are not always exact repeats. Equal entries are not always repeated. The whole screen tested about 150,000 compounds, of which about 540 (0.36%) showed an effect of 50% or more. Some of the results follow.

Tested on: Plasmodium falciparum
Assay: Primary screen in NF54 nanoGlo assay, in single point, at 2uM, 72h; a lower Z score goes with more inhibition
Type: functional, Erythrocyte
Settings: timepoint 72 hour

| SMILES | % Inhibition [%] | Z score | % Inhibition (2 µM) |
| --- | --- | --- | --- |
| CNC(=O)C1C2CCC(C2)N1C(=O)c1ccccc1 (stereo not drawn) | 16 | -1.91 |  |
| O=C(Cn1cncn1)Nc1ccc(OCc2ccccc2)cc1 | -31 | 3.61 |  |
| COc1cccc(-c2nc(C)c(C(=O)Nc3n[nH]c(CC(C)C)n3)s2)c1 |  |  | 82% and 77% |
| O=c1[nH]c2cc(-c3nc(-c4cccc(Br)c4)no3)ccc2c(=O)n1Cc1ccccc1 | 4 | -0.41 |  |
| COc1cc2c(cc1OC)CN(C1CC3CCC1C3)CC2 (stereo not drawn) | 2 | -0.31 |  |
| Cc1nnc([C@@H]2CC3(CCN(C(=O)c4ccccc4)CC3)CN2C(=O)c2ccccc2)o1 | -16 | 1.99 |  |
| CCC1(CC)CN(C(=O)c2nccc3cccnc23)CC[S@@+]1[O-] | -9 | 0.93 |  |
| CCc1cc([C@H](C)NCC(=O)Nc2ccc(Cl)c(OC)c2)on1 | -6 | 1.22 |  |
| COc1cccc(CO[C@@H]2CN(C(=O)CCc3scnc3C)CC(=O)N(CC(C)C)C2)c1 | -16 | 1.86 |  |
| CCCN(CC1CC1)C(=O)[C@@H]1CN(S(=O)(=O)CC)C[C@H]1c1ccncc1 | -14 | 1.39 |  |
| CC1(CC(F)(F)F)CN(C(=O)c2c[nH]nc2-c2ccoc2)C1 | 7 | -0.82 |  |
| Cc1cnc(C(=O)NCc2cnoc2C)cn1 | -2 | 0.25 |  |
| COc1cc(C)c(Br)cc1NC(=O)[C@@H](C(=O)O)C(C)C | -10 | 1.31 |  |
| Cc1ccc(C(=O)N[C@H]2CCCS(=O)(=O)C2)cc1Cl | -1 | 0.15 |  |
| COc1ccccc1OC1(C(=O)O)CCN(Cc2ccncc2)CC1 | -8 | 1.04 |  |
| Cc1ccn2cc(C(=O)N3CCCC[C@@H]3Cn3cc(C)cn3)nc2c1 | 2 | -0.44 |  |
| CO[C@H]1CCCN(C(=O)c2cccc(-c3ccc4c(c3)NC(=O)C4)c2)C1 | -12 | 1.65 |  |
| Cc1c[nH]c([C@H](C)NC(=O)c2cnc(O)cn2)n1 | -9 | 0.9 |  |
| O=C(NCCc1cccc(-c2ccccc2)c1)C1(n2cnnn2)CCOCC1 | 6 | -0.84 |  |
| Cc1cc(F)c(S(=O)(=O)N(C)c2cccc3cccnc23)cc1C(=O)O | -10 | 1.18 |  |
| O=C(Nc1ccc(Cl)c(S(=O)(=O)Nc2ccc(Cl)cc2)c1)c1cnccn1 | -7 | 1.31 |  |
| CCc1nc(C[C@H]2CN(c3ncnc4oc(C)nc34)CCO2)no1 | -7 | 1.03 |  |

| SMILES | % Inhibition [%] | Z score | % Inhibition (2 µM) |
| --- | --- | --- | --- |
| O=C(NC1=NN2C(=NC(c3ccc(Cl)cc3)=C[C@H]2c2ccc(F)cc2)N1)c1ccc(Cl)cc1 | 48 | -9.04 |  |
| O=C(Cc1c[nH]c2ccccc12)Nc1cccc(C(=O)N2CCC(O)CC2)c1 | -13 | 1.64 |  |
| Cn1ncc2c(NC[C@H]3CCS(=O)(=O)C3)nc(-c3cccnc3)nc21 | -15 | 1.91 |  |
| COc1ccc([C@@H](NC(=O)c2cccc3c2CCC3)C(=O)O)cc1Cl | -1 | 0.07 |  |
| OC[C@H]1CN(CCc2ccc(F)c(F)c2)C[C@@H]1C(F)(F)F | 23 | -3.01 |  |
| OCCn1nc(C2CC2)nc1-c1ccc(N2CCCC2)cc1 | -16 | 1.69 |  |
| O=C(NCc1c[nH]c2ccccc12)[C@H]1CCc2[nH]cnc2C1 | -13 | 2.26 |  |
| O=C1CN(c2ncnc3scc(-c4ccccc4)c23)CCN1 | -15 | 2.07 |  |
| Cc1ccc(F)c(N2CCC[C@H](NC(=O)c3cnn(C)c3)C2=O)c1 | -10 | 1.31 |  |
| CCN1CC[C@@]2(CCC1=O)CN(c1nc3ccccc3s1)CCN2C | 0 | 0.03 |  |
| CCCCc1nc2ccccc2c(NC(=O)CNC2CCCCC2)c1CCC |  |  | -20% and -4% |
| COC[C@](C)(CCO)NC(=O)c1cccc(Cl)c1F | 7 | -0.63 |  |
| Cc1nc(CN(C)C(=O)c2c[nH]c(C(F)(F)F)c2)no1 | -9 | 1.48 |  |
| CCc1c(C)noc1NC(=O)c1ccn(C(F)F)n1 | -12 | 1.9 |  |
| CN1N=C(C(=O)N2CCC[C@H]2c2cccc(F)c2)CCC1=O | -2 | 0.18 |  |
| O=C(c1ccco1)N1CCN(C2CCS(=O)(=O)CC2)CC1 | 17 | -2.12 |  |
| C[C@H]1CC(Nc2ccc(Cl)cc2)=NC1(C)C | 3 | -0.53 |  |
| CC[C@@H](Cc1ccccc1)N(CC)C(=O)c1c[nH]c(C)cc1=O | 4 | -0.44 |  |
| Cc1cc2c(cc1-c1nc3c(cnn3C3CCCCC3)[nH]1)OCO2 | -15 | 1.35 |  |
| C[C@H](NCCN(C)C1CCCCC1)c1ccncc1 | 3 | -0.38 |  |
| CC(C)c1nc(CCNC(=O)c2ccsc2)no1 | -6 | 0.95 |  |
| CCCCc1n[nH]c([C@@H](O)COc2ccccc2C)n1 | -13 | 1.57 |  |

| SMILES | % Inhibition [%] | Z score | % Inhibition (2 µM) |
| --- | --- | --- | --- |
| Cc1noc(C)c1C(=O)NC[C@H]1Cn2cccc2CN1C | -2 | 0.41 |  |
| CC(C)CC1CC(NCc2cnn(C)c2)CCO1 (stereo not drawn) | -3 | 0.27 |  |
| NC(=O)NC(=O)CNc1cccc(C(F)(F)F)c1 | 0 | -0.05 |  |
| CC[C@H]1CCCCN1Cc1cc(Cl)cc2c1OCOC2 | 5 | -0.52 |  |
| COc1ccc(C(C)(C)C(=O)N(C)Cc2cn(C)nc2C(C)C)cc1 | 38 | -1.19 |  |
| NCc1c(Br)ccc(Cl)c1F | -37 | 4.37 |  |
| CCN1CCN(CCCOc2ccc(F)cc2)C(=O)C1=O | -3 | 0.48 |  |
| CC[C@@H](c1ccncc1)N(C)C(=O)Nc1cc(F)c(N(C)C)c(F)c1 | 7 | -1.13 |  |
| COc1cc(Cn2c(=O)c(C#N)c3n(c2=O)CCC3)c(OC)cc1Br | -2 | 0.37 |  |
| O=C(Nc1ccc2oc(-c3cccc4ccccc34)nc2c1)c1cccc2c(Br)cccc12 | -31 | 3.59 |  |
| CCn1cc(C(=O)N[C@@H]2[C@@H]3CCO[C@@H]3[C@@H]2C2CCCC2)cn1 | -2 | 0.27 |  |
| COc1ccc(Cl)cc1C(C)N[C@@H]1C=C[C@H](CO)C1 (stereo partly drawn) | -7 | 0.86 |  |
| COc1ccc(CCNC(=O)CN2CCC[C@@]3(CNC(=O)O3)C2)cc1 | -8 | 0.75 |  |
| Cn1cnn(Cc2ccc(C#N)cc2Br)c1=O | 0 | -0.05 |  |
| CC(C)Oc1cc(F)ccc1OCc1nnc(C2CC2)n1C | -8 | 1.35 |  |
| COC1CCC(N(C)C(=O)CNC(=O)NCc2ccc(C)cc2)CC1 (stereo not drawn) | -11 | 1.17 |  |
| CC(C)(C)C(=O)N1CC[C@@H](CC(=O)O)[C@@H](CC2=NCCc3ccc(C(C)(C)C)cc32)C1 | -11 | 1.86 |  |
| N#Cc1cc2n(n1)CCN(C(=O)c1nc3ccc(Cl)cn3c1F)C2 | 2 | -0.45 |  |
| Cc1cc(C)c2c(c1)C1(NC(C(C)O)[C@H]3C(=O)N(C4CCCCCC4)C(=O)[C@H]31)C(=O)N2 (stereo partly drawn) | -1 | 0.13 |  |
| Cc1[nH]c2ncnc(NC(=O)c3ccncc3Cl)c2c1C | 11 | -0.98 |  |
| Cc1ccc2c(c1C)NC(=O)[C@]21N2CCC[C@H]2[C@@H](C(=O)c2cc3ccccc3o2)[C@]12C(=O)Nc1ccccc12 | -17 | 2.18 |  |
| COc1ccc(NC(=O)[C@H](C)n2nc(C)c3c(C)onc3c2=O)cc1OC | -4 | 0.35 |  |

| SMILES | % Inhibition [%] | Z score | % Inhibition (2 µM) |
| --- | --- | --- | --- |
| COc1ccccc1OCCCNCCO | -12 | 2.33 |  |
| CCn1cc(C(=O)Nc2cccnc2)c(C)n1 | 3 | -0.61 |  |
| CC(=O)NCCCN(C)c1cncc(Br)c1 | -4 | 0.47 |  |
| C=CCOc1ccc([C@H]2CC(=O)Nc3c2c(C)nn3-c2nc3ccc(C)cc3s2)cc1OC | -6 | 0.99 |  |
| CC[C@]1(O)CCCN(C(=O)c2csc3c2CCN(Cc2c(C)noc2C)C3)C1 | 4 | -0.54 |  |
| COc1ccc(CCNC(=O)CN2CCCC[C@H]2c2cccc(F)c2)cc1 | 0 | -0.03 |  |
| C[C@@]1(C(=O)NCCc2nnc(N)s2)CCCO1 | -6 | 1.14 |  |
| O=C(Cn1cncn1)N1CC[C@@]2(CCCN(CCC3CCCCC3)C2)C1 | 2 | -0.41 |  |
| CN(C(=O)c1ccc2c(c1)OCO2)C1CCN(c2ccccn2)CC1 | -5 | 0.65 |  |
| O=C(COc1ccc(Cl)cc1Cl)NC(=O)NC1CCCC1 | -15 | 2.42 |  |
| NC(=O)c1cc(Cl)ccc1NCC(=O)NCc1ccc2c(c1)OCO2 | -10 | 1.31 |  |
| O=S(=O)(c1ccc(F)cc1)N1CCC(n2cc(CCCO)nn2)CC1 | 14 | -1.75 |  |
| O=C(COc1ccc(-n2cccn2)nn1)Nc1nccs1 | -12 | 2.34 |  |
| Cc1c(-c2ccccc2F)[nH]c2ccc(CNC(=O)[C@H](C)N3CCCC3=O)cc12 | 7 | -1.24 |  |
| O=C(NCCn1c(=O)[nH]c2ccsc2c1=O)c1ccc[n+]([O-])c1 | -3 | 0.63 |  |
| C[C@H](NC(=O)CN1CCCS1(=O)=O)c1ccccc1 | -6 | 1.18 |  |
| CCn1cnc2c(NC[C@H]3COCO3)ncnc21 | 4 | -0.73 |  |
| Cc1cc(F)ccc1-n1cc(C(=O)N2CC3C(C2)C3(C)C)nn1 (stereo not drawn) | -6 | 0.9 |  |
| O[C@H]1CC[C@@H](c2nc(-c3c[nH]c4ccccc34)n[nH]2)CC1 | -3 | 0.46 |  |
